Measurements reported in PubChem BioAssay AID485294 (National Center for Advancing Translational Sciences (NCATS), 2010).
About 150 (0.041%) of roughly 370,000 compounds were called active. This list was built around the results that the source calls inconclusive (neither active nor inactive); the mix of calls is not that of the screen. Calls come from the whole dose curve; as a rule, active = well fitted inhibition curve with a large enough effect; inconclusive = small, poorly fitted or top-dose-only effect; inactive = flat fitted curve, though single readings scatter. No potency is given beside an inconclusive call; the fits are too rough.

Molecular target: Beta-lactamase (Escherichia coli (strain K12)) (UniProt P00811)
Assay: qHTS Inhibitors of AmpC Beta-Lactamase (assay with detergent); note: nearly all actives have a fitted effect of over 25% in size;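 for activity change, negative = inhibition: 0% = no-compound wells and -100% = no-enzyme wells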
Details: AmpC hydrolysis of nitrocefin, absorbance 480 nm, 0.01% Triton; activity change, negative = inhibition: at 114 µM (top of the series)
How it was run: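 20 mM phosphate pH 7.0 + 0.01% (detergent screen) or 0.0001% Triton X-100; 5.3 nM AmpC reagent; cpd preinc 15 min RT; nitrocefin (800 uM stock) to start; A480 q20 s × 4 min; Activity was normalised to no-enzyme and no-compound control wells.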
Potency is the fitted concentration of half-maximal effect; tags give direction and shape of the fitted curve.

Sequence of UniProt P00811 (P00811 whole entry, looked up): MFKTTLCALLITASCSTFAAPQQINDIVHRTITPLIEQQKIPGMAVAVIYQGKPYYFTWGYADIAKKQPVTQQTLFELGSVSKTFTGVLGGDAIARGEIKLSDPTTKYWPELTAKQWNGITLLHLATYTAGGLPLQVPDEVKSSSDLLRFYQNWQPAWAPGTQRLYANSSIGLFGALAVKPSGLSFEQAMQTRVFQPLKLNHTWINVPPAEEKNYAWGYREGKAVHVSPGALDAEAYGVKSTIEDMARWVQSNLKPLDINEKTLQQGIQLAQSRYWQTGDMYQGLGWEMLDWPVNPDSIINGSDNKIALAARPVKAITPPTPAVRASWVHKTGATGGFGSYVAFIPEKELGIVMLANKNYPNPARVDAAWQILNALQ

SMILES | Potency | activity change, negative = inhibition
CCc1ccc(N2CCN(CCNC(=O)Nc3ccc(OC)cc3)CC2)cc1 | inconclusive [inhibitor, full curve, poor fit] | –
Cc1cc(C)n2c(Nc3ccc4c(c3)OCCO4)c(-c3ccco3)nc2n1 | inconclusive [inhibitor, full curve] | –
COc1cc(NC(=O)C2CC2)c(C(=O)O)cc1OC | inconclusive [inhibitor, full curve, poor fit] | –
Cc1ccccc1C(=O)OCCN1CCOCC1 | – | inactive: -2.75%
CC(/C=N/NC(=O)CN1CCN(Cc2ccc(Cl)cc2)CC1)=C\c1ccco1 | – | inactive: -1.46%
O=C(NCc1ccc(Cl)cc1)c1ccncc1 | inconclusive [inhibitor, partial curve, poor fit] | –
Cc1occc1C(=O)NNC(=S)NCc1ccccc1 | inconclusive [inhibitor, full curve, poor fit] | –
COc1ccc(Cc2nnc(NC(=O)C3CC(=O)N(c4ccccc4)C3)s2)cc1OC (stereo unspecified) | – | inactive: 4.5%
COc1ccc(-c2[nH]nc3c2C2(C(=O)N(CC(=O)O)c4ccccc42)C(C#N)=C(N)O3)cc1OC (stereo unspecified) | inconclusive [inhibitor, partial curve] | –
CN(CCCNS(=O)(=O)c1cccc2cccnc12)Cc1ccccc1 | inconclusive [inhibitor, full curve, poor fit] | –
CCOc1ccccc1NC(=O)CSc1nnc2ccc(-c3ccncc3)nn12 | inconclusive [inhibitor, full curve, poor fit] | –
O=C(Cc1ccc(O)cc1)N/N=C/c1cccs1 | inconclusive [inhibitor, full curve, poor fit] | –
Cc1nc(CCNC(=O)Cc2ccccc2)cs1 | inconclusive [inhibitor, partial curve, poor fit] | –
Cn1cc(C(=O)C(=O)NC2CCCCC2)c2ccccc21 | inconclusive [inhibitor, partial curve] | –
COC(=O)/C=c1/sc2nc3ccccc3n2c1=O | active: 44.7 µM | –
CC(=O)NC(=S)Nc1ccc(N2CCOCC2)c(S(=O)(=O)Nc2cc(Cl)ccc2Cl)c1 | – | inactive: 5.86%
O=C(CO/N=C/c1cccc([N+](=O)[O-])c1)NC1CCCCC1 | inconclusive [inhibitor, full curve] | –
COc1ccc(-c2nnc(Nc3nc4c(OC)cccc4s3)o2)cc1 | inconclusive [inhibitor, partial curve, poor fit] | –
O=c1c2ccccc2cnn1Cc1n[nH]c(=S)n1-c1ccc(F)c(Cl)c1 | inconclusive [inhibitor, single point] | –
COc1ccc(OCC(=O)NN2Cc3ccccc3C2=N)cc1 | inconclusive [inhibitor, full curve, poor fit] | –
COc1ccc2nc(SCC(=O)N3CC(=O)Nc4ccccc43)c(C#N)cc2c1 | inconclusive [inhibitor, full curve, poor fit] | –
O=C(NCc1ccncc1)c1ccc(Oc2ccccc2)cc1 | – | inactive: -9.1%
CC(C)c1ccc(/C=C/C(=O)N2CCOCC2)cc1 | inconclusive [inhibitor, partial curve, poor fit] | –
COCCNC(=O)c1ccccc1NC(=O)CSc1ccc(C)cc1 | inconclusive [inhibitor, full curve, poor fit] | –

SMILES | Potency | activity change, negative = inhibition
CCCSc1nc2c(c(=O)[nH]1)C(c1ccc(F)cc1F)CC(=O)N2 (stereo unspecified) | – | inactive: 1.32%
O=C(NCC(c1ccco1)N1CCc2ccccc21)c1ccccc1F (stereo unspecified) | inconclusive [inhibitor, partial curve, poor fit] | –
COc1cccc(-n2c(=S)sc3c(=O)n(-c4ccccc4C)c(SCC(=O)O)nc32)c1 | inconclusive [inhibitor, single point] | –
CCC(C)(C)NC(=O)C(c1cccc(OC)c1)N(C(=O)c1ccn[nH]1)c1cccc(OC)c1 (stereo unspecified) | inconclusive [inhibitor, single point] | –
CC(C)Cn1c(N)c(C(=O)CSc2nncs2)c(=O)n(C)c1=O | – | inactive: -1.07%
COc1cccc(N2CCN(C(=O)C3CCCN(c4ncnc5c4nc4n5CCCCC4)C3)CC2)c1 (stereo unspecified) | inconclusive [inhibitor, partial curve, poor fit] | –
CC(C)(C)OC(=O)N1CCC(C(N)=O)CC1 | inconclusive [inhibitor, partial curve, poor fit] | –
COc1ccc(Br)c(C(=O)Nc2cccc(S(=O)(=O)N3CCOCC3)c2)c1 | inconclusive [inhibitor, full curve, poor fit] | –
O=C(c1cc2nc(-c3cccs3)cc(C(F)(F)Cl)n2n1)N1CCCc2ccccc21 | – | inactive: -2.86%
C/C(=N/NC(=O)CNC(=O)c1cccs1)c1ccc(Cl)cc1 | inconclusive [inhibitor, full curve] | –
COc1cccc(/C=N/N=C(\N)c2nonc2N)c1O | inconclusive [inhibitor, single point] | –
CCOc1cccc(-c2cc(=O)[nH][nH]2)c1 | inconclusive [inhibitor, single point] | –
Cn1/c(=N\NC(=O)C2CCCCC2)sc2ccccc21 | – | inactive: 3.43%
CN(C(=O)c1ccc2c(c1)N(Cc1ccccc1F)C(=O)c1ccccc1S2(=O)=O)C1CCCCC1 | – | inactive: 24.9%
Cc1sc2ncnc(N3CCC(C(=O)Nc4ccc(Br)cc4Br)CC3)c2c1C | inconclusive [inhibitor, single point] | –
CCOc1ccc2nc(NC(=O)COC)sc2c1 | – | inactive: 5.16%
COc1ccc2c(c1)CCC/C2=N\NC(=O)c1ccoc1C | inconclusive [inhibitor, full curve] | –
O=C(Nc1cc(Cl)ccc1Cl)c1cc(S(=O)(=O)N2CCCc3ccccc32)ccc1F | – | inactive: 6.48%
CC1Cc2ccccc2N1C(=O)Cc1cccs1 (stereo unspecified) | inconclusive [inhibitor, single point] | –
C=CCC(CC=C)(NC(=O)c1ccccc1C(=O)O)c1ccccc1 | inconclusive [inhibitor, full curve, poor fit] | –
Cn1cc(C(=O)c2cccc(Cl)c2)cc1C#N | – | inactive: 7.98%
O=C(c1ccco1)N1CCC(c2ccccc2)C1 (stereo unspecified) | inconclusive [inhibitor, partial curve] | –
O=C(Cc1nnc(NC(=O)c2ccccc2)s1)N/N=C/c1ccc(O)cc1 | inconclusive [inhibitor, full curve, poor fit] | –
Cc1ccc(S(=O)(=O)N2CCCCC2)cc1NC(=O)C1CCC1 | inconclusive [inhibitor, full curve, poor fit] | –

SMILES | Potency | activity change, negative = inhibition
CCN(CC)CCCC(C)NC1=NCCCCC1 (stereo unspecified) | inconclusive [inhibitor, full curve, poor fit] | –
O=C(CC1N=C2c3ccccc3N=C(SCc3ccccc3Cl)N2C1=O)NCc1cccs1 (stereo unspecified) | – | inactive: 1.97%
O=C(NCCCCc1ccccc1)Nc1cccc(F)c1 | inconclusive [inhibitor, full curve, poor fit] | –
COc1ccc(OCCSc2nnc(Cc3cccc4ccccc34)n2N)cc1 | – | inactive: 2.93%
Cc1c(O)ccc(C(=O)CN2CCN(c3ccccc3)CC2)c1O | inconclusive [inhibitor, partial curve, poor fit] | –
O=C(Nc1nnc(S(=O)(=O)N2CCCC2)s1)c1ccccc1F | inconclusive [inhibitor, full curve, poor fit] | –
CC(=O)Nc1cc(NC(C)=O)cc(C(=O)NC(C)(C)C)c1 | inconclusive [inhibitor, full curve] | –
CCOc1ccc(C(C)=O)cc1COC(=O)c1ccccc1C(=O)N(C)Cc1ccccc1 | – | inactive: -14.6%
CCCCS(=O)(=O)Nc1ccc(N2CCOCC2)c(S(=O)(=O)N2CCOCC2)c1 | – | inactive: -0.691%
CCOC(=O)c1cnc2c(-c3ccc(Cl)cc3)cnn2c1C | – | inactive: -0.424%
CC(=O)N1c2c(cc(Br)cc2S(=O)(=O)N2CCN(c3ccccc3F)CC2)CC1C (stereo unspecified) | inconclusive [inhibitor, partial curve, poor fit] | –
Nc1c(N(CCO)C(=O)/C=C/c2ccco2)c(=O)[nH]c(=O)n1Cc1ccccc1 | – | inactive: -9.12%
CC(C)(CN1CCN(C(c2ccccc2)c2ccccc2)CC1)NS(=O)(=O)c1ccccc1 | – | inactive: -2.42%
CCCSc1sc(C(=O)OC)c(-c2cccs2)c1C#N | inconclusive [inhibitor, partial curve, poor fit] | –
O=c1[nH]c(O)c(/C=C2\C=NN=C2c2ccccc2)c(=O)[nH]1 | inconclusive [inhibitor, partial curve, poor fit] | –
CCCn1nc(C(=O)Nc2ccc(N3CCOCC3)cc2)c2ccccc2c1=O | inconclusive [inhibitor, partial curve] | –
CN(CC(=O)Nc1cccc(F)c1)C(=O)c1ccccc1Cc1ccccc1 | inconclusive [inhibitor, full curve] | –
CCOC1OC(=O)C(Cl)=C1Nc1ccc(C)cc1C (stereo unspecified) | – | inactive: -12.2%
CC1(C)CC2(CC(c3ccc(F)cc3)c3ccc(O)cc3O2)NC(=S)N1 (stereo unspecified) | – | inactive: -3.12%
COc1ccc(NC(=O)Nc2nnc(Cc3ccc(OC)c(OC)c3)s2)cc1 | – | inactive: 0.498%
CN(C)C(=O)CSc1nnc([C@@H](N)Cc2ccccc2)o1 | – | inactive: -15%
CN(C)S(=O)(=O)c1ccc2c(c1)C(=NO)c1cc(S(=O)(=O)N(C)C)ccc1-2 | – | inactive: 0.836%
CCOP(=O)(OCC)/C(C#N)=C/c1ccc([N+](=O)[O-])cc1 | – | inactive: 2.09%
